In PMC4336329 (PLoS ONE, 2015):
Screen size: about 310,000 compounds; about 2,200 (0.71%) showed an effect of 50% or more. Effects have a minus sign here. The list shows a part of the results.

Molecular target: human ether-à-go-go-related gene (hERG) potassium channel (human, UniProt Q12809)
Assay: primary screen, population patch clamp on CHO cells stably expressing hERG

Chain of human ether-à-go-go-related gene (hERG) potassium channel (Q12809 whole entry, looked up): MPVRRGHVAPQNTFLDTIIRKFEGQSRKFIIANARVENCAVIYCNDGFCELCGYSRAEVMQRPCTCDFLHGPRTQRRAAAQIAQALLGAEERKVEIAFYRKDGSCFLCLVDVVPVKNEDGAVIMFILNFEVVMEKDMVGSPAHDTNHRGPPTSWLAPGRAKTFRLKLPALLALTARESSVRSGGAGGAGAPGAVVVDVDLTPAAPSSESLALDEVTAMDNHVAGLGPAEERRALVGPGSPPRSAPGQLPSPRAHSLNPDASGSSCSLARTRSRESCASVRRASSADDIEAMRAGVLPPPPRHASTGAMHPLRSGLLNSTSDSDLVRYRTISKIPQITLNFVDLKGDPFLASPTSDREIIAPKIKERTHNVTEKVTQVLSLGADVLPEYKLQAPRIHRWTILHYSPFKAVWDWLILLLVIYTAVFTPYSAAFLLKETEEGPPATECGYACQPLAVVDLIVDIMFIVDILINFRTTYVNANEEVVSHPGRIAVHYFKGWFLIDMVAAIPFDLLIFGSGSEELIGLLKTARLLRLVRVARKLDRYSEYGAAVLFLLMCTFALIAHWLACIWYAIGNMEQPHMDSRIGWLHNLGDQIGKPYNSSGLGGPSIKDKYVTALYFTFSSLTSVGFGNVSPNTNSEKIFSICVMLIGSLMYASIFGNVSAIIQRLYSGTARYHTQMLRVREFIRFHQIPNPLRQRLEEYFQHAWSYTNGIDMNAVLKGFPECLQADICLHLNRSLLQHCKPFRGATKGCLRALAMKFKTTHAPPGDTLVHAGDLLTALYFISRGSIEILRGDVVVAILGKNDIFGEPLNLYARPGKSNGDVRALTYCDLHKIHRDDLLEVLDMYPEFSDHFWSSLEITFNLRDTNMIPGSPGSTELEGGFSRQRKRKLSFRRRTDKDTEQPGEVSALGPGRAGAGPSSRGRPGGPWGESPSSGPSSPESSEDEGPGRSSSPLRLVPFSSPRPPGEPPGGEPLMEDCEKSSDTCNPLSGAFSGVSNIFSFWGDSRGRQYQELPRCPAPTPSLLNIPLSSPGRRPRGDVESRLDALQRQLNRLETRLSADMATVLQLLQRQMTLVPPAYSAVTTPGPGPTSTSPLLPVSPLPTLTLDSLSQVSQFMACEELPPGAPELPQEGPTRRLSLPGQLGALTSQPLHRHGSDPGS

SMILES	hERG current change (%, negative = inhibition) at 1uM [%]
O=C(NCCCCNC(=O)c1ccc(Cl)s1)c1ccc(Cl)s1	11.6
COc1ccc(N2CCN(C(=O)CCCOc3cc(=O)n(C)c4ccccc34)CC2)cc1	1.6
CCN(CC)CCN1C(=O)C(=O)/C(=C(/O)c2ccc(F)cc2)C1c1ccncc1 (stereo not shown)	7.52
CCOC(=O)N1CCN(C(=O)CSc2nc3c([nH]c4ccccc43)c(=O)n2C)CC1	4.31
O=C(CCSc1ccccc1)N1CCN(c2ccccc2F)CC1	2.16
CCN1C(=O)CSC1=Nc1ccc(Cl)c(Cl)c1	10.4
S=C(Nc1ccc(Oc2ccccc2)cc1)N1CCOCC1	-16.4
O=C1CCC(=O)N1c1nc2nc(-c3ccccc3)cc(-c3ccccc3)n2n1	-10.4
COC(=O)c1nonc1NCn1nnc2ccccc21	9.55
Oc1cccc(/C=N/c2c(-c3ccco3)nc3ccccn23)c1	12.4
COc1ccc(CCN2CC(C(=O)NCCN3CCOC3=O)CCC2=O)cc1 (stereo not shown)	13.7
Cc1ccc(C)c(NC(=S)N(Cc2ccco2)C(C)c2cccs2)c1 (stereo not shown)	3.46
Cc1ccc(NC(=O)c2cc(N3C(=O)C4CC=CCC4C3=O)ccc2N2CCCCC2)cc1 (stereo not shown)	0.757
CCCCc1nnc(NC(=O)c2ccc(S(=O)(=O)N3CCOCC3)cc2)s1	11.1
CCCNC(=O)Cn1c(=O)oc2cc(S(=O)(=O)N3CC(C)CC(C)C3)ccc21 (stereo not shown)	14.6
CC(C)(C)OC(=O)N1Cc2ccccc2C[C@H]1C(=O)NC1CCCC1	8.57
C=CCOc1c(Br)cc(/C=C2\SC(=Nc3ccccc3)NC2=O)cc1OC	10.6
Cc1nccn1CC(=O)N/N=C/c1ccc(O)c(O)c1	-3.16
CCOc1cc(CN2CCC(CO)(Cc3cccc(C(F)(F)F)c3)CC2)ccc1OC	-78
CC(C)(O)C#Cc1ccc(C(=O)N2CCCC2C(=O)O)s1 (stereo not shown)	17.7
Cn1c2ccc(F)cc2c2nnc(SCC(=O)Nc3cccc(O)c3)nc21	3.36
CCc1ccc2c(c1)cc(CN(C(=S)Nc1cccc(C)c1)C1CC1)c1nnnn12	1.94

SMILES	hERG current change (%, negative = inhibition) at 1uM [%]
COc1ccc(N2CC(NC(=O)Nc3ccccc3)CC2=O)cc1 (stereo not shown)	2.45
Cc1cc(C)cc(N2CC(C)Cn3c2nc2c3c(=O)[nH]c(=O)n2C)c1 (stereo not shown)	9.57
O=[N+]([O-])c1ccc(Oc2cccc(F)c2)c2ccncc12	5.67
CCOC(=O)c1cccc(NS(=O)(=O)c2cnc[nH]2)c1	16.7
NC(=S)N/N=C/c1ccccc1OC(=O)c1cc2ccccc2oc1=O	17.5
O=c1ccc2cc(S(=O)(=O)NCCCc3ccccc3)ccc2[nH]1	11.5
CCNc1ccc(Br)cc(C(=O)/C=C/c2ccc(Cl)cc2)c1=O	1.03
COc1ccccc1CNC(=O)C(=O)c1cn(CC(=O)N2CCCC2)c2ccccc12	7.29
O=C(NCCOC(=O)c1ccccc1)c1ccccc1	13.6
CCOCCCNC(=O)C(NC(=O)c1ccc2c(c1)OCO2)c1ccc(Cl)cc1 (stereo not shown)	-6.8
O=C(Nc1ccncc1)C1CCN(S(=O)(=O)c2c(Cl)cccc2Cl)CC1	1.69
COc1ccc(S(=O)(=O)NC2(C(F)(F)F)NC(=O)N(CCc3ccc(OC)c(OC)c3)C2=O)cc1 (stereo not shown)	11.9
CC(C)(O)C#Cc1ccc(C(=O)N2CCC(C(N)=O)(N3CCCCC3)CC2)cc1	-4.93
O=C(COC(=O)c1ccccc1NCCO)NCCC1=CCCCC1	-0.418
Cc1cc(C(=O)Nc2ccon2)cs1	-5.3
CCOC(=O)c1[nH]c(C)c(C(=O)N2CCC3(CC2)OCCO3)c1C	16.3
O=C(O)CN1C(=O)NC2(CCCc3ccccc32)C1=O (stereo not shown)	15.9
Cc1ccc(S(=O)(=O)N(C)CC(=O)NCCCc2ccccc2)cc1	8.33
Cc1ccc(NC(=O)C2CCN(C(=O)OC(C)(C)C)CC2)cc1S(=O)(=O)N1CCCCC1	0.574
Cc1cc(NC(=O)CCSc2ccccc2)ccc1Br	11.7
Cc1cccc(C(=O)Nc2nnc(S(=O)(=O)N3CCOCC3)s2)c1	14
COc1cccc(C(C)N(C)Cc2nc(COc3ccccc3)no2)c1 (stereo not shown)	12

SMILES	hERG current change (%, negative = inhibition) at 1uM [%]
COc1ccccc1NC(=O)Cn1ncc2c1-c1ccccc1OC2	8.02
COc1ccc(CNC(=O)CN(C)Cc2ccc(C(C)(C)C)cc2)cc1.O=C(O)C(=O)O	13.7
O=C(Cn1c(C(F)(F)F)nc2ccccc21)OCC(=O)c1c[nH]c2ccccc12	11.7
Cc1ccc(NC(=O)CCN2CCC(C(N)=O)CC2)cc1	16.5
COc1ccc2cc(C#N)c(SCC(=O)N3CC(=O)Nc4ccccc43)nc2c1	10.5
O=C(Nc1ccc2c(c1)C(=O)NC2=O)c1ccc2ncsc2c1	-2.01
Cc1ccc(C(=O)NCCn2cc(SCC(=O)N3CCOCC3)c3ccccc32)cc1	15.2
OCC1(CCc2ccccc2)CCCN(CCCc2ccccc2)C1 (stereo not shown)	-57.6
COc1ccccc1/C=C/C(=O)NCC(=O)N/N=C/c1cc(Br)ccc1OC	0.37
Cn1nc(-c2ccccc2)cc1NS(=O)(=O)c1ccc(C#N)cc1	14.7
Cc1ccc(Cl)cc1NC(=O)C1CCCCC1C(=O)O (stereo not shown)	7.86
CCc1cc(C(=O)N2CCCC(CNS(=O)(=O)c3cccs3)C2)n(C)n1 (stereo not shown)	9.55
CCn1c(CC(=O)Nc2ccc(F)cc2)nnc1SCC(=O)NC1CCCC1	6.33
CCOC(=O)Cn1c(N2CCOCC2)nc2c1c(=O)[nH]c(=O)n2C	13.3
O=C1c2ccccc2C(=O)N1c1nc(-c2cccs2)cs1	4.33
S=C(NC1CC2CCC1C2)N1CCN(c2cccc(Cl)c2)CC1 (stereo not shown)	8.82
CC(=O)c1cccc(NC(=O)CCC2CCCC2)c1	11.2
O=C(c1ccc2[nH]c(=O)c(=O)[nH]c2c1)N1CCN(c2ccccc2)CC1	5.9
COC(=O)CN1C(c2ccc(OC)cc2)=Nc2ccc(Cl)cc2C1c1ccccc1 (stereo not shown)	4.65
COc1cc(SC)ccc1C(=O)OCc1nc2ccsc2c(=O)[nH]1	-15.2
C=Cn1ccnc1P(=S)(c1cc(N(CC)CC)ns1)c1nccn1C=C	3.97
CCOc1ncccc1C(=O)OCC(=O)Nc1ccc(S(=O)(=O)N2CCCC2)cc1	-2.76

SMILES	hERG current change (%, negative = inhibition) at 1uM [%]
CC1(C)Cc2c(sc3c2c(=N)n(Cc2ccco2)c(=O)n3Cc2ccccc2)CO1	3.6
O=C(CSc1n[nH]c(-c2ccco2)n1)Nc1sc2c(c1C(=O)Nc1ccccc1)CCCC2	12.1
O=C(Nc1ccc(Br)c(Cl)c1)c1ccco1	10.6
CC(C)c1ccc(S(=O)(=O)N2CCN(C(=O)c3ccc(N4CCCC4)c([N+](=O)[O-])c3)CC2)cc1	-15.8
CN(C)CCOC(=O)CC12CC3CC(C1)CC(CC(=O)OCCN(C)C)(C3)C2.Cl	12.2
O=C(CN1C(=O)COc2ccc(S(=O)(=O)N3CCCCC3)cc21)NCc1ccc(F)cc1	20
Cc1ccc(S(=O)(=O)CCC(=O)OCC(=O)c2cc(C)ccc2C)cc1	0.672
CCn1c(=O)c2c(nc(SCC(=O)N3CCCC(C)C3)n2C)n(C)c1=O (stereo not shown)	9.74
O=C(Oc1ccccc1F)c1ccc2c(=O)n3c(nc2c1)CCC3	11.2
COc1ccc(N2CCN(C(=O)CC(C)S(=O)(=O)c3ccc4c(c3)NC(=O)CO4)CC2)cc1 (stereo not shown)	5.4
O=[N+]([O-])c1ccc(O)c(/C=N/Nc2ncnc3c2cnn3-c2ccccc2)c1	15.9
O=C(CSc1nnc(C2CC2)n1C1CC1)c1ccc(F)cc1	5.71
Cc1nc2c(C(=O)N3CCCCC3)cnn2c(C)c1Cc1ccccc1F	2.82
COc1cccc(CNC(=O)CSc2nc(=O)n(Cc3ccncc3)c3c2CCC3)c1	14.8
CN1CCN(CC(=O)O)CC1	-2.82
Cc1ccccc1NS(=O)(=O)c1ccc(OCC(=O)N2CCCC2)cc1	-3.55
O=C(Nc1ccc(Oc2ccc(C(F)(F)F)cn2)c(Cl)c1)C1CC1	12.5
Cc1cc(C)c(NC(=O)COC(=O)c2c(C)noc2C)c(Cl)c1	6.85
CN(Cc1nc(-c2ccc(Cl)cc2)no1)C(=O)c1ccco1	5.17
O=C(NCc1cc(C(F)(F)F)cc(C(F)(F)F)c1)C1CC(c2cccc(F)c2)=NO1 (stereo not shown)	2.14
COCCNC(=O)C1CC(c2ccc(F)cc2)=NO1 (stereo not shown)	14
O=C1C(Nc2ccccc2)=C(N2CCCCC2)C(=O)c2ccccc21	5.01
